{
  "source": "patent US11965006B2",
  "about": "“Antimicrobial and anti-cancer therapy” (UNIVERSITY OF PITTSBURGH—OF THE COMMONWEALTH SYSTEM OF …, priority 2016, dated 2024)",
  "key": {"[1]": {"test_system": "Pseudomonas aeruginosa cultures", "assay": "Stability in apical epithelial secretion of ALI HBE cells (bactericidal activity retained)", "details": "AMP at 4 μM, secretion of ALI cultured primary HBE cells", "description": "Apical epithelial secretion is collected from the apical site of air-liquid interface (ALI) cultured primary human epithelial (HBE) cells. Different AMPs were incubated at 4 μM with apical epithelial secretion for different periods of time (as indicated) to determine their stability. […] The stability may not due to resistance to N.E. digestion because there should be no N.E. in ALI HBE cultured cells. This observation indicates unexpected unique feature of D-WBLU2."}, "biotic biofilm": {"test_system": "biotic biofilm", "assay": "Biotic Biofilm Assay (bacteria/epithelial cell co-culture)", "details": "FIGS. 12A and 12B, compared with LL37 and WLBU2", "text": "The Biotic Biofilm Assay is intended to mimic the conditions in the lungs of healthy subjects and patients with pulmonary diseases such as cystic fibrosis and other disorders where infectious agents are not efficiently removed from the surface of the alveoli. FIG. 11 provides a diagram of the steps involved in the Biotic Biofilm Assay. The Biotic Biofilm Assay is based on bacteria/epithelial cell co-culture model. Primary mouse or human airway epithelial cell (AEC) cultures were established as described in previous publications (Liu, Y., Di, M. E., Chu, H. W., Liu, X., Wang, L., Wenzel, S., and Di, Y. P. (2013) Increased susceptibility to pulmonary Pseudomonas infection in Splunc1 knockout mice, J Immunol 191, 4259-4268. Liu, Y., Bartlett, J. A., Di, M. E., Bomberger, J. M., Chan, Y. R., Gakhar, L., Mallampalli, R. K., McCray, P. B., Jr., and Di, Y. P. (2013) SPLUNC1/BPIFA1 contributes to pulmonary host defense against Klebsiella pneumoniae respiratory infection, Am J Pathol 182, 1519-1531). Human AEC are extracted from human tissues obtained from UPMC Presbyterian Hospital. For mouse AEC, mice were euthanized and tracheas immediately removed. […]\nAnti-biofilm properties include the disruption of a biotic biofilm performed in 96-well plates. Sonication causes the release of bacterial cells from the biofilm, CFU/mL is measured for each bacterial dilution."}},
  "note": "Square brackets hold non-standard residues; d marks the D form. Ends that are not written are not given here. Peptide text beside a SMILES is read from it.",
  "data": [
    {"molecule": "CC(C)[C@H](NC(=O)[C@H](Cc1c[nH]c2ccccc12)NC(=O)[C@H](CCCNC(=N)N)NC(=O)[C@@H](N)CCCNC(=N)N)C(=O)N[C@@H](CCCNC(=N)N)C(=O)N[C@@H](CCCNC(=N)N)C(=O)N[C@@H](C(=O)N[C@@H](CCCNC(=N)N)C(=O)N[C@@H](CCCNC(=N)N)C(=O)N[C@H](C(=O)N[C@@H](Cc1c[nH]c2ccccc12)C(=O)N[C@@H](CCCNC(=N)N)C(=O)N[C@@H](CCCNC(=N)N)C(=O)N[C@H](C(=O)N[C@@H](C(=O)N[C@@H](CCCNC(=N)N)C(=O)N[C@@H](C(=O)N[C@H](C(=O)N[C@@H](CCCNC(=N)N)C(=O)N[C@@H](CCCNC(=N)N)C(=O)N[C@@H](Cc1c[nH]c2ccccc12)C(=O)N[C@@H](C(=O)N[C@@H](CCCNC(=N)N)C(=O)N[C@@H](CCCNC(=N)N)C(=O)O)C(C)C)C(C)C)C(C)C)C(C)C)C(C)C)C(C)C)C(C)C", "note": "[SEQ ID No. 32] (H-RRWVRR[dV]RRVWRRV[dV]R[dV]VRRW[dV]RR-OH; N-terminus and C-terminus assumed)", "values": [
      {"measurement": "stability: bactericidal activity after incubation with apical epithelial secretion", "setting": "[1]", "result": "no bacterial growth"}
    ]},
    {"molecule": "CC(C)[C@H](NC(=O)[C@H](Cc1c[nH]c2ccccc12)NC(=O)[C@H](CCCNC(=N)N)NC(=O)[C@@H](N)CCCNC(=N)N)C(=O)N[C@@H](CCCNC(=N)N)C(=O)N[C@@H](CCCNC(=N)N)C(=O)N[C@@H](C(=O)N[C@@H](CCCNC(=N)N)C(=O)N[C@@H](CCCNC(=N)N)C(=O)N[C@@H](C(=O)N[C@@H](Cc1c[nH]c2ccccc12)C(=O)N[C@@H](CCCNC(=N)N)C(=O)N[C@@H](CCCNC(=N)N)C(=O)N[C@H](C(=O)N[C@@H](C(=O)N[C@@H](CCCNC(=N)N)C(=O)N[C@@H](C(=O)N[C@@H](C(=O)N[C@@H](CCCNC(=N)N)C(=O)N[C@@H](CCCNC(=N)N)C(=O)N[C@@H](Cc1c[nH]c2ccccc12)C(=O)N[C@@H](C(=O)N[C@@H](CCCNC(=N)N)C(=O)N[C@@H](CCCNC(=N)N)C(=O)O)C(C)C)C(C)C)C(C)C)C(C)C)C(C)C)C(C)C)C(C)C", "note": "[SEQ ID No. 33] (H-RRWVRR[dV]RR[dV]WRRV[dV]R[dV][dV]RRW[dV]RR-OH; N-terminus and C-terminus assumed)", "values": [
      {"measurement": "stability: bactericidal activity after incubation with apical epithelial secretion", "setting": "[1]", "result": "no bacterial growth"}
    ]},
    {"molecule": "CC(C)[C@@H](NC(=O)[C@H](Cc1c[nH]c2ccccc12)NC(=O)[C@H](CCCNC(=N)N)NC(=O)[C@H](CCCNC(=N)N)NC(=O)[C@H](NC(=O)[C@H](NC(=O)[C@H](CCCNC(=N)N)NC(=O)[C@H](NC(=O)[C@H](NC(=O)[C@H](CCCNC(=N)N)NC(=O)[C@H](CCCNC(=N)N)NC(=O)[C@H](Cc1c[nH]c2ccccc12)NC(=O)[C@H](NC(=O)[C@H](CCCNC(=N)N)NC(=O)[C@H](CCCNC(=N)N)NC(=O)[C@H](NC(=O)[C@H](CCCNC(=N)N)NC(=O)[C@H](CCCNC(=N)N)NC(=O)[C@H](NC(=O)[C@H](Cc1c[nH]c2ccccc12)NC(=O)[C@H](CCCNC(=N)N)NC(=O)[C@@H](N)CCCNC(=N)N)C(C)C)C(C)C)C(C)C)C(C)C)C(C)C)C(C)C)C(C)C)C(=O)N[C@@H](CCCNC(=N)N)C(=O)N[C@@H](CCCNC(=N)N)C(=O)O", "note": "[SEQ ID No. 34] (H-RRW[dV]RR[dV]RR[dV]WRR[dV][dV]R[dV][dV]RRW[dV]RR-OH; N-terminus and C-terminus assumed)", "values": [
      {"measurement": "stability: bactericidal activity after incubation with apical epithelial secretion", "setting": "[1]", "result": "no bacterial growth"}
    ]},
    {"molecule": "LKKWWKTSKGLLGGLLGKVTSVIK [SEQ ID No. 13]", "values": [
      {"measurement": "anti-biofilm activity (biotic system), CFU/mL", "setting": "biotic biofilm", "result": "superior to LL37 (SEQ ID No. 25) and WLBU2 (SEQ ID No. 26)"}
    ]},
    {"molecule": "LKKWWKTVKGLLGGLLGKVTSVIK [SEQ ID No. 14]", "values": [
      {"measurement": "anti-biofilm activity (biotic system), CFU/mL", "setting": "biotic biofilm", "result": "superior to LL37 (SEQ ID No. 25) and WLBU2 (SEQ ID No. 26)"}
    ]},
    {"molecule": "RRWVRRVRRVWRRVVRVVRRWVRR [SEQ ID No. 26, reference compound]", "values": [
      {"measurement": "stability: bactericidal activity after incubation with apical epithelial secretion", "setting": "[1]", "result": "lost part of its bactericidal activity"}
    ]}
  ]
}
